# Some of the results follow.
# Legend:
# Assay in all cases: glycan array binding signal (z-score within array); higher = stronger binding
# Conditions in all cases: glycan notation: IUPAC condensed, linker removed
# Kdn(a2-3)Gal(b1-3)GlcNAc = molecular target: Kdn(a2-3)Gal(b1-3)GlcNAc
# Outline: (§1)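 The binding signal is a Z-score computed within each array and averaged over linkers. Arrays of the same protein sequence at different concentrations or buffers were also averaged together. Data originate from 3228 arrays in the Consortium for Functional Glycomics database, kept only where the protein sequence was available.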
# Kdn(a2-3)Gal(b1-4)Glc = molecular target: Kdn(a2-3)Gal(b1-4)Glc
# Outline: as §1
# Kdn(a2-3)Gal(b1-4)GlcNAc = molecular target: Kdn(a2-3)Gal(b1-4)GlcNAc
# Outline: as §1
# [1] = molecular target: Kdn(a2-3)Gal(b1-4)[Fuc(a1-3)]GlcNAc
# Outline: as §1
# Kdn(a2-6)Gal(b1-4)GlcNAc = molecular target: Kdn(a2-6)Gal(b1-4)GlcNAc
# Outline: as §1
# [2] = molecular target: Man(a1-2)Man(a1-2)Man(a1-3)Man
# Outline: as §1
# [3] = molecular target: Man(a1-2)Man(a1-2)Man(a1-6)[Man(a1-3)]Man
# Outline: as §1
# Man(a1-2)Man(a1-3)Man = molecular target: Man(a1-2)Man(a1-3)Man
# Outline: as §1
# [4] = molecular target: Man(a1-2)Man(a1-3)[Man(a1-2)Man(a1-6)]Man
# Outline: as §1
# [5] = molecular target: Man(a1-2)Man(a1-3)[Man(a1-2)Man(a1-6)]Man(a1-6)[Man(a1-2)Man(a1-2)Man(a1-3)]Man
# Outline: as §1
# [6] = molecular target: Man(a1-2)Man(a1-3)[Man(a1-2)Man(a1-6)]Man(a1-6)[Man(a1-2)Man(a1-2)Man(a1-3)]Man(b1-4)GlcNAc(b1-4)GlcNAc
# Outline: as §1
# [7] = molecular target: Man(a1-2)Man(a1-3)[Man(a1-6)]Man(a1-6)[Man(a1-2)Man(a1-3)]Man(b1-4)GlcNAc(b1-4)GlcNAc
# Outline: as §1
# [8] = molecular target: Man(a1-2)Man(a1-6)[Man(a1-3)]Man(a1-6)[Man(a1-2)Man(a1-2)Man(a1-3)]Man
# Outline: as §1
# [9] = molecular target: Man(a1-2)Man(a1-6)[Man(a1-3)]Man(a1-6)[Man(a1-2)Man(a1-2)Man(a1-3)]Man(b1-4)GlcNAc(b1-4)GlcNAc
# Outline: as §1
# Man(a1-3)[Man(a1-6)]Man = molecular target: Man(a1-3)[Man(a1-6)]Man
# Outline: as §1
# [10] = molecular target: Man(a1-3)[Man(a1-6)]Man(a1-6)[Man(a1-2)Man(a1-3)]Man(b1-4)GlcNAc(b1-4)GlcNAc
# Outline: as §1
# [11] = molecular target: Man(a1-3)[Man(a1-6)]Man(a1-6)[Man(a1-3)]Man
# Outline: as §1
# [12] = molecular target: Man(a1-3)[Man(a1-6)]Man(a1-6)[Man(a1-3)]Man(b1-4)GlcNAc(b1-4)GlcNAc
# Outline: as §1
# [13] = molecular target: Man(a1-3)[Man(a1-6)]Man(b1-4)GlcNAc(b1-4)GlcNAc
# Outline: as §1
# [14] = molecular target: Man(a1-3)[Man(a1-6)]Man(b1-4)GlcNAc(b1-4)[Fuc(a1-6)]GlcNAc
# Outline: as §1
# Man(a1-6)Man = molecular target: Man(a1-6)Man
# Outline: as §1
# Man(b1-4)GlcNAc = molecular target: Man(b1-4)GlcNAc
# Outline: as §1
# MurNAc(b1-4)GlcNAc = molecular target: MurNAc(b1-4)GlcNAc
# Outline: as §1
# Neu5Ac(a2-3)Gal = molecular target: Neu5Ac(a2-3)Gal
# Outline: as §1
# [15] = molecular target: Neu5Ac(a2-3)Gal(b1-3)GalNAc
# Outline: as §1
# [16] = molecular target: Neu5Ac(a2-3)Gal(b1-3)GalNAc(b1-3)Gal(a1-4)Gal(b1-4)Glc
# Outline: as §1
# [17] = molecular target: Neu5Ac(a2-3)Gal(b1-3)GalNAc(b1-4)[Neu5Ac(a2-3)]Gal(b1-4)Glc
# Outline: as §1
# [18] = molecular target: Neu5Ac(a2-3)Gal(b1-3)GalNAc(b1-4)[Neu5Ac(a2-8)Neu5Ac(a2-3)]Gal(b1-4)Glc
# Outline: as §1
# [19] = molecular target: Neu5Ac(a2-3)Gal(b1-3)GalNAc6S
# Outline: as §1
# [20] = molecular target: Neu5Ac(a2-3)Gal(b1-3)GlcNAc
# Outline: as §1
# [21] = molecular target: Neu5Ac(a2-3)Gal(b1-3)GlcNAc(b1-2)Man
# Outline: as §1
# [22] = molecular target: Neu5Ac(a2-3)Gal(b1-3)GlcNAc(b1-2)Man(a1-3)[GlcNAc(b1-4)][Neu5Ac(a2-3)Gal(b1-3)GlcNAc(b1-2)Man(a1-6)]Man(b1-4)GlcNAc(b1-4)GlcNAc
# Outline: as §1
# [23] = molecular target: Neu5Ac(a2-3)Gal(b1-3)GlcNAc(b1-2)Man(a1-3)[Neu5Ac(a2-3)Gal(b1-3)GlcNAc(b1-2)Man(a1-6)]Man(b1-4)GlcNAc(b1-4)GlcNAc
# Outline: as §1
# [24] = molecular target: Neu5Ac(a2-3)Gal(b1-3)GlcNAc(b1-3)Gal(b1-3)GlcNAc
# Outline: as §1
# [25] = molecular target: Neu5Ac(a2-3)Gal(b1-3)GlcNAc(b1-3)Gal(b1-4)GlcNAc
# Outline: as §1
# [26] = molecular target: Neu5Ac(a2-3)Gal(b1-3)GlcNAc(b1-3)GalNAc
# Outline: as §1
# [27] = molecular target: Neu5Ac(a2-3)Gal(b1-3)GlcNAc(b1-4)Gal(b1-4)Glc
# Outline: as §1
# [28] = molecular target: Neu5Ac(a2-3)Gal(b1-3)GlcNAc(b1-6)GalNAc
# Outline: as §1
binder,measurement,setting,value
"Epa6 (Candida glabrata), Q6DTM7_CANGB (protein) MGSSHHHHHHSSGLVPRGSHMKDDYSSSLSNNNLGWTDPTEFPLGCSPNVTTPKNGLSMELYSYDYLKSGSNPCWDAAYLDPNYPRTGYKSHRLLAKVENVAGNINFYYHAPMGCTSLFDTLPQAYNYRTPLTMTNFTMLLYGYFKPKVTGYHTFTISADDLLFVNFGAGNAFDCCKRESSADDFGNYQAYAVWGSQTAKDDLTVHLDAGLYYPIRIFFNNRDNDGALSLTLKTESDPNPVIDFSDYFYSFDDTKDGCPGLVSYDTS",glycan array binding signal (z-score),Kdn(a2-3)Gal(b1-3)GlcNAc,-0.254
same,glycan array binding signal (z-score),Kdn(a2-3)Gal(b1-4)Glc,-0.252
same,glycan array binding signal (z-score),Kdn(a2-3)Gal(b1-4)GlcNAc,-0.133
same,glycan array binding signal (z-score),[1],-0.178
same,glycan array binding signal (z-score),Kdn(a2-6)Gal(b1-4)GlcNAc,-0.277
same,glycan array binding signal (z-score),[2],-0.232
same,glycan array binding signal (z-score),[3],-0.308
same,glycan array binding signal (z-score),Man(a1-2)Man(a1-3)Man,-0.286
same,glycan array binding signal (z-score),[4],-0.325
same,glycan array binding signal (z-score),[5],-0.287
same,glycan array binding signal (z-score),[6],-0.229
same,glycan array binding signal (z-score),[7],-0.282
same,glycan array binding signal (z-score),[8],-0.315
same,glycan array binding signal (z-score),[9],-0.347
same,glycan array binding signal (z-score),Man(a1-3)[Man(a1-6)]Man,-0.311
same,glycan array binding signal (z-score),[10],-0.257
same,glycan array binding signal (z-score),[11],-0.281
same,glycan array binding signal (z-score),[12],-0.243
same,glycan array binding signal (z-score),[13],-0.312
same,glycan array binding signal (z-score),[14],-0.322
same,glycan array binding signal (z-score),Man(a1-6)Man,-0.325
same,glycan array binding signal (z-score),Man(b1-4)GlcNAc,-0.332
same,glycan array binding signal (z-score),MurNAc(b1-4)GlcNAc,-0.339
same,glycan array binding signal (z-score),Neu5Ac(a2-3)Gal,-0.285
same,glycan array binding signal (z-score),[15],-0.316
same,glycan array binding signal (z-score),[16],-0.271
same,glycan array binding signal (z-score),[17],-0.277
same,glycan array binding signal (z-score),[18],-0.208
same,glycan array binding signal (z-score),[19],-0.325
same,glycan array binding signal (z-score),[20],-0.298
same,glycan array binding signal (z-score),[21],-0.305
same,glycan array binding signal (z-score),[22],-0.317
same,glycan array binding signal (z-score),[23],-0.316
same,glycan array binding signal (z-score),[24],-0.298
same,glycan array binding signal (z-score),[25],-0.325
same,glycan array binding signal (z-score),[26],-0.341
same,glycan array binding signal (z-score),[27],-0.269
same,glycan array binding signal (z-score),[28],-0.296
